Out of some 44,000 compounds screened, about 340 (0.77%) were called active. Not shown: some 5% with an inconclusive outcome. Calls come from the whole dose curve; as a rule, active = well fitted inhibition curve with a large enough effect; inconclusive = small, poorly fitted or top-dose-only effect; inactive = flat fitted curve, though single readings scatter. Some of the results follow.
test: Acumen qHTS Assay for Inhibitors of the mTORC1 Signaling Pathway in MEF (Tsc2-/-, p53-/-) Cells: Sytravon; conditions: phospho-rpS6 immunofluorescence/PI, 24 h; series mostly up to 38.3 µM; activity change, negative = inhibition: at the top concentration;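 note: plate controls were DMSO for no effect and rapamycin for full effect; nearly all actives have a fitted effect of over 50% in size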
Outline: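 Tsc2-/-, p53-/- MEFs (empty-vector stable line) in DMEM + 10% FBS were treated with compounds 24 h at 37 degree Celsius, fixed, and immunostained for phospho-rpS6 (Alexa-488) with propidium iodide counterstain. Laser-scanning cytometry gave % positive cells, normalized against 7.5 nM rapamycin and DMSO.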

| Compound | activity change, negative = inhibition |
| --- | --- |
| O=C(CN1CCN(c2ccc(Cl)cc2)CC1)Nc1ccc(F)cc1F | inactive: 1.88% |
| Cc1cccn2c(=O)c(/C=C(\C#N)c3nc4ccccc4n3C)c(Oc3ccc(Br)cc3)nc12 | inactive: -20% |
| CCOc1ccc(N(CC(=O)Nc2ccc(F)cc2F)S(=O)(=O)c2c(C)[nH]c(=O)[nH]c2=O)cc1 | inactive: -2.67% |
| COc1ccc(CNC(=O)C(=O)NCC(c2cccs2)S(=O)(=O)c2ccc(F)cc2)cc1 (stereo unspecified) | inactive: -0.41% |
| COc1ccc(CN(CCC(c2ccc3c(c2)OCO3)c2ccccc2OC)C(C)=O)cc1 (stereo unspecified) | inactive: 1.62% |
| CCOCCCn1c(=N)c(S(=O)(=O)c2ccc(C)cc2)cc2c(=O)n3cccc(C)c3nc21 | inactive: 6.39% |
| Cc1ccc(NC(=O)c2c(Nc3ccccc3C)sc(C(=O)c3ccccc3)c2N)cc1 | inactive: -14.1% |
| O=C(NCC(c1ccc2c(c1)OCO2)N1CCN(c2ccccc2)CC1)c1ccccc1F (stereo unspecified) | inactive: 3.94% |
| CC(=O)N1CCCc2cc(S(=O)(=O)N(C)CC(=O)Nc3ccc(F)cc3Cl)ccc21 | inactive: -13.4% |
| CCc1nn(CC(=O)NC(C)C)c(=O)c2cc3cc(F)ccc3n12 | inactive: -3.78% |
| CCOC(=O)c1ccc(OCC2c3cc(OC)c(OC)cc3CCN2C(=O)Cc2ccc(F)cc2)cc1 (stereo unspecified) | inactive: -15.7% |
| Cc1ccc(Cl)cc1NC(=O)c1cnc(N2CCCCC2)c2ccccc12 | inactive: 3.37% |
| N#Cc1ccc(C(=O)Nc2cc3nn(-c4ccccc4)nc3cc2Cl)c(F)c1 | inactive: -7.31% |
| CCOC(=O)C1CCN(S(=O)(=O)c2cc(Br)cc3c2N(C(=O)CC)CC3)CC1 | inactive: -2.45% |
| CCCC(=O)NCC1(N(C)C)CCCCC1 | inactive: -1.21% |
| COc1ccc(NC(=O)C(=O)NCCc2csc(-c3ccc(Cl)cc3)n2)cc1OC | inactive: 0.473% |
| COc1ccc(-c2nc3scc(CCNS(=O)(=O)c4ccc(C)cc4)n3n2)cc1 | inactive: 4.64% |
| CCOc1cc2sc(N3CCC(C(=O)Nc4ccc(C)cc4C)CC3)nc2cc1Br | inactive: -8.23% |
| COc1ccccc1NC(=O)C(=O)NCC(c1ccc2c(c1)OCO2)N1CCN(C)CC1 (stereo unspecified) | inactive: -6.38% |
| CCN1CCN(c2ncc3c(n2)CCN(Cc2cc(F)cc(F)c2)C3)CC1 | inactive: 1.2% |
| COc1ccc(S(=O)(=O)N(CC(=O)Nc2ccccc2Br)Cc2ccccc2)cc1 | inactive: -4.75% |

| Compound | activity change, negative = inhibition |
| --- | --- |
| Cn1c(=NC(=O)c2ccc(S(=O)(=O)N3CCCc4ccccc43)cc2)sc2cc(F)ccc21 | inactive: 18.1% |
| CC(C)OCCCn1c(=O)c2ccccc2n2c(-c3ccc(F)cc3)nnc12 | inactive: 0% |
| Cc1cccc(C(=O)Nc2c(-c3ccccc3)nc3cc(C)ccn23)c1 | inactive: 7.39% |
| COC(=O)c1ccc(NC(=O)CSc2nc(=O)[nH]c3c2CCCC3)cc1 | inactive: -7.41% |
| CCOC(=O)COc1ccc([N+](=O)[O-])cc1-c1ccnc2cc(-c3ccc(Cl)cc3)nn12 | inactive: -14.8% |
| CCc1ccc(CN(Cc2ccco2)c2cnc(S(C)(=O)=O)nc2C(=O)Nc2cccc(C)c2)cc1 | inactive: -4.86% |
| CN(C)c1ccc(C(CNC(=O)c2ccccc2)N2CCc3ccccc32)cc1 (stereo unspecified) | inactive: 0% |
| CC(C)CC(=O)Nc1cccc(-c2nc3ccccc3[nH]2)c1 | inactive: -2.25% |
| Cc1cccc(-c2noc(-c3ccccc3OCC(=O)Nc3ccc([N+](=O)[O-])cc3)n2)c1 | inactive: 0.537% |
| COc1ccccc1CNc1nc(-c2ccco2)nn1S(=O)(=O)c1ccc2ccccc2c1 | inactive: -5.23% |
| Cc1ccccc1C(=O)Nc1sc2c(c1C(=O)NCc1ccco1)CCC(C(C)(C)C)C2 (stereo unspecified) | inactive: -0.189% |
| COCCCNC(=O)c1oc2c(c1C)-c1nn(Cc3ccccc3Cl)cc1CC2 | inactive: 0.0257% |
| CNC(=O)C1CCC(Cn2c(=O)c3sccc3n(CC(=O)NCc3ccccc3)c2=O)CC1 (stereo unspecified) | inactive: 3.97% |
| Cc1ccc(SCCNC(=O)CN(c2ccccc2)S(=O)(=O)N(C)C)cc1 | inactive: -4.21% |
| CCOc1cc(C(=O)OCc2cc(=O)n3nc(CC)sc3n2)cc(OCC)c1OCC | inactive: 14.7% |
| CCC(=O)N1CCc2cc(Br)cc(S(=O)(=O)N3CCCC(C(=O)Nc4ccc(C(C)C)cc4)C3)c21 (stereo unspecified) | inactive: 0.238% |
| CC1CCC(C(=O)NC(C(=O)OCC(=O)c2ccccc2)C(C)C)CC1 (stereo unspecified) | inactive: 2.67% |
| CCc1cnc2c(c1SCC(=O)c1ccccc1)c(=O)n(C)c(=O)n2C | inactive: -2.22% |
| COc1ccc(-c2ccc(NS(=O)(=O)c3ccc(OC)c(OC)c3)cc2)nn1 | inactive: 1.87% |
| CCOc1sc2nc(C)n(CC(=O)Nc3cccc(C)c3)c(=O)c2c1C | inactive: 1.19% |
| CCCCC(=O)N(c1ccc2oc(C)c(C(C)=O)c2c1)S(=O)(=O)c1ccc(F)cc1C | inactive: -17.1% |

| Compound | activity change, negative = inhibition |
| --- | --- |
| COC(=O)c1ccccc1NC(=O)c1c(C)oc2ncn(C)c(=O)c12 | inactive: 0.0083% |
| COc1ccc(OCc2nc3ccccc3n2Cc2ccccc2Cl)cc1 | inactive: 1.61% |
| Cc1ccc(CNS(=O)(=O)c2cc3[nH]c(=O)c(=O)[nH]c3cc2C)cc1 | inactive: -5.11% |
| Cc1cn2c(=O)cc(COc3ccccc3NC(=O)c3ccco3)nc2s1 | inactive: -5.12% |
| Cc1ccc(S(=O)(=O)NC2(C(F)(F)F)C(=O)Nc3c2c(=O)[nH]c(=O)n3-c2ccccc2)cc1 (stereo unspecified) | inactive: -2.53% |
| O=S(=O)(c1ccc(Br)cc1)c1nnn2c1nc(N1CCOCC1)c1sccc12 | inactive: -1.75% |
| NC(=O)c1nc(-c2ccc(F)c(F)c2)nc2c1[nH]c(=O)n2-c1cccc(Cl)c1 | inactive: -0.0187% |
| CCN1CCN(CCCNC(=O)c2cnn(-c3ccc(C)cc3C)c2C2CCN(C(=O)OC(C)(C)C)CC2)CC1 | inactive: 5.33% |
| O=C(COC(=O)c1cc(-c2ccccc2)nc2ccccc12)c1ccc(Br)cc1 | inactive: -21.8% |
| Cc1ccc(C(=O)Nc2ccc3nc(SCC(=O)N4CCCc5ccccc54)sc3c2)cc1 | inactive: -23.4% |
| CSc1nc2sc3c(c2c(=O)n1Cc1ccccc1)CCC(C(C)(C)C)C3 (stereo unspecified) | inactive: 8.42% |
| CC(C)(C)NC(=O)N1CCC(C(=O)O)CC1 | inactive: -0.273% |
| Cc1ccc(CNC(=O)Cc2ccc(NC(=O)N3CCSc4ncccc43)cc2)cc1 | inactive: 0.113% |
| CCc1ccccc1NC(=O)c1ccc2c(c1)nnn2C1CCCC1 | inactive: 0% |
| CCCNC(=O)c1ccc(Cn2c(=O)c3cccn3c3cccnc32)cc1 | inactive: -0.356% |
| CCOc1ccccc1NC(=O)CN1C(=O)COc2ccc(S(=O)(=O)NC3CCCC3)cc21 | inactive: 1.13% |
| COCCCNC(=O)CCCn1c(=O)c2cccn2c2ccccc21 | inactive: 7.33% |
| COc1ccccc1CNC(=O)CCC1N=C2c3ccccc3N=C(SCc3ccc(Cl)cc3)N2C1=O (stereo unspecified) | inactive: -3.99% |
| O=C1CCCc2cc(S(=O)(=O)NCC3CCC(C(=O)NCc4ccc(F)cc4)CC3)ccc2N1 (stereo unspecified) | inactive: -1.75% |
